# Values joined by “and” are separate entries in the source; they are usually repeats but may differ in a detail not shown here. Identical values can stand only once. Out of some 73,000 compounds screened, about 1,800 (2.5%) were called active. The shares of active, inactive and inconclusive entries below differ from those in the screen. Calls come from the whole dose curve; as a rule, active = well fitted activation curve with a large enough effect; inconclusive = small, poorly fitted or top-dose-only effect; inactive = no such curve, though single readings can be large or run the other way. Potencies beside an inconclusive call are fits to weak or partial responses and may not hold up.
# Assay: qHTS Assay for Agonists of the Thyroid Stimulating Hormone Receptor: Activators of Intracellular cAMP Concentrations in Parental HEK 293; note: nearly all actives have a fitted effect of over 55% in size; for activation: % of control where 0% means no effect
# Settings: parental HEK293 CNG cAMP sensor, membrane potential fluorescence; activation: at 57.1 µM (top of the series) unless noted
# Method in brief: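 Counterscreen for endogenous-receptor signalling: CNG-channel HEK 293 cells report cAMP rise by membrane depolarization. After 60 min dye equilibration with 100 uM RO 20-1724, compounds incubated 30 min before bottom-read fluorescence at 590 nm.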
# Potency is the fitted concentration of half-maximal effect; tags give direction and shape of the fitted curve.
SMILES,Potency,activation
Nc1c(C(=O)c2ccc(Br)s2)oc2ccccc12,"inconclusive: 31.6 µM [activator, single point]",
Cc1ccccc1OCC(=O)N(Cc1nc(-c2ccccc2)no1)C(C)C,"inconclusive: 25.1 µM [activator, single point]",
c1ccc(Cn2nnc3c(N4CCCC4)ncnc32)cc1,"inconclusive: 0.0316 µM [activator, single point]",
CCCC[S@@](=N)(=O)CC[C@@H](N)C(=O)O,"inconclusive: 6.31 µM [activator, single point] and inconclusive: 25.1 µM [activator, single point]",
O=S(=O)(NCCc1csc(-c2cccnc2)n1)c1ccc2c(c1)OCCO2,"inconclusive: 12.6 µM [activator, partial curve]",
O=[N+]([O-])c1cccc(Cl)c1Cl,,inactive: 7.43%
O=C(COC(=O)CCOc1ccccc1)NCc1ccco1,,inactive: -4.36%
Cc1ccc2occ(CN3CCN(c4ccccc4)CC3)c(=O)c2c1,"inconclusive: 25.1 µM [activator, single point]",
Cc1occc1C(=O)Nc1cc(C(F)(F)F)ccc1Cl,"inconclusive: 31.6 µM [activator, single point]",
COCCN(CCOC)C(=O)c1sc2nc(-c3ccccc3)cn2c1C,,inactive: 13.7%
O=C(Nc1cccc(C(F)(F)F)c1)C1CCCN1S(=O)(=O)c1cccc2cccnc12 (stereo not given),"inconclusive: 39.8 µM [activator, single point]",
Oc1c([C@H](Nc2ccccn2)c2ccccc2)ccc2cccnc12,,inactive: 8.78% [at 11.4 µM]
c1cc(CSSCc2ccncc2)ccn1,,inactive: 10.1% [at 11.4 µM]
COc1cccc(NS(=O)(=O)c2nc3nc(C)cc(C)n3n2)c1,"inconclusive: 6.31 µM [activator, single point]",
N#Cc1ccc(CN2CCC3(CCNCC3)CC2)cc1,,inactive: 4.7%
O=C(Nc1ccc(N2CCN(C(=O)c3ccco3)CC2)c(Cl)c1)c1cc2ccccc2o1,,inactive: 16.9%
COc1ccc(Cn2nnnc2C(C(C)C)N2CCc3ccccc32)cc1 (stereo not given),"inconclusive: 12.6 µM [activator, partial curve]",
COC(=O)C1=C(C)N(Cc2ccco2)C(=O)C1,,inactive: 21.6%
Cc1c(N=Cc2c(O)n(Cc3ccco3)c(=O)c3ccccc23)c(=O)n(-c2ccccc2)n1C,,inactive: -17.9%
Cc1ccc(Oc2ccc(NC(=O)c3ccco3)cc2)cc1,,inactive: 26.8%
COc1ccc(S(=O)(=O)Nc2ccc(C)cc2)cc1OC,,inactive: -4.53%
CCN(CCCCN1C(=O)c2ccccc2C1=O)c1ccc2c(c1)C(=O)N(C)C2=O,"inconclusive: 12.6 µM [activator, partial curve]",
CCC(=O)N1CCc2cc(S(=O)(=O)CCC(=O)NCc3cccs3)ccc21,"inconclusive: 20 µM [activator, single point]",
CCOC(=O)c1c(NC(=O)CSc2nnnn2-c2ccc3c(c2)OCO3)sc(C)c1C,"inconclusive: 12.6 µM [activator, partial curve]",

SMILES,Potency,activation
CCOc1ccc(OCCSc2nnnn2C2CCCCC2)cc1,active: 20 µM,
COc1cccc(-c2nc(N3CCNCC3)c3ccccc3n2)c1,"inconclusive: 39.8 µM [activator, single point]",
Cc1cc(C)n(S(=O)(=O)c2ccc3ccccc3c2)n1,"inconclusive: 31.6 µM [activator, single point]",
C[C@@H](NC(=O)c1coc(=O)c(Br)c1)c1ccccc1,,inactive: -11%
COc1cc(OC)cc([C@H](CNc2ncnc3c2ncn3[C@@H]2O[C@@H](CO)[C@H](O)[C@@H]2O)c2ccccc2C)c1,,inactive: 3.66%
CC(=O)Cc1nsc(NC(=O)C2Cc3ccccc3C(=O)O2)n1 (stereo not given),"inconclusive: 3.98 µM [activator, single point]",
CCCN1C2=C(C(=O)CCC2)C(c2ccc(O)c(Br)c2)C2=C1CCCC2=O,"inconclusive: 25.1 µM [activator, partial curve]",
O=C(COc1cccc(NC(=O)c2ccco2)c1)c1ccccc1,"inconclusive: 20 µM [activator, single point]",
CCCCCCC1C(C#N)=C(N)OC2=C1C(=O)CCC2 (stereo not given),,inactive: 5.88%
COc1ccc(N(CC(=O)NC2CCCC2)C(=O)Cn2nnc(-c3ccc(C)cc3)n2)cc1,,inactive: 7.75%
O=C(CSc1nc2c(c(=O)n1-c1ccc(F)cc1)SCC2)Nc1ccc2c(c1)OCO2,"inconclusive: 6.31 µM [activator, single point]",
Cc1nn(C)c(C)c1NC(=O)CCSc1nc(-c2ccco2)cc(C(F)(F)F)n1,"inconclusive: 6.31 µM [activator, single point]",
Cc1ccc(/C=N/c2sc3c(c2C#N)CCC3)s1,,inactive: 0.397%
Clc1ccc(OCCN2CCN(c3ncnc4sccc34)CC2)cc1,"inconclusive: 20 µM [activator, partial curve]",
CCOc1cc(C)nc(N2CCCC(C(=O)NCc3ccccc3F)C2)n1 (stereo not given),"inconclusive: 7.94 µM [activator, full curve, poor fit]",
COc1ccc(CC(=O)Nc2cccc(-c3nnc(-c4cccc(C)c4)o3)c2)cc1OC,"inconclusive: 39.8 µM [activator, single point]",
COc1ccc(C2C(C(=O)N3CCC(C)CC3)c3ccccc3C(=O)N2C)cc1 (stereo not given),"inconclusive: 15.8 µM [activator, partial curve]",
Cc1ccc(-c2nnc(SCc3ccccc3F)o2)cc1,"inconclusive: 15.8 µM [activator, single point]",
CC(CCc1nc2ccccc2s1)(c1ccc(O)cc1)c1ccc(O)cc1,,inactive: -6.57% [at 11.4 µM]
COc1ccc(C(=O)N2CCC3(CCN(Cc4ccncc4)CC3)CC2)cc1,"inconclusive: 3.98 µM [activator, partial curve]",
Cc1cccc(OCc2nnc(SCC(=O)N(C(C)C)C(C)C)n2Cc2ccco2)c1C,active: 7.94 µM,
COc1ccc(C2CC(=O)c3cnc(NC(=O)c4cccc(OC)c4)nc3C2)cc1 (stereo not given),"inconclusive: 31.6 µM [activator, single point]",
NCCC[C@@H](CC(=O)N[C@@H]1CCCC[C@H]1C(=O)N[C@H](CC(=O)N[C@@H](CCC(=O)O)CC(=O)O)Cc1c[nH]c2ccccc12)NC(=O)C[C@H](CO)NC(=O)[C@@H]1CNCC[C@H]1N,"inconclusive: 3.98 µM [activator, single point]",
CCC/C=C(\CCC)C(NS(=O)(=O)c1ccc(-c2ccccc2)cc1)c1ccc(C(=O)OC)cc1 (stereo not given),,inactive: 18%

SMILES,Potency,activation
C=CCN1CN(S(=O)(=O)c2cccs2)c2nc3ccccc3nc21,,inactive: 19.3%
Cc1ccc(S(=O)(=O)Nc2nc3ccccc3nc2NCc2ccco2)cc1C,"inconclusive: 6.31 µM [activator, partial curve]",
Cc1ccc(OCc2nn3c(-c4ccco4)nnc3s2)cc1,"inconclusive: 25.1 µM [activator, partial curve]",
O=C(Nc1ccc(Oc2ccccc2)cc1)C1CCCN(c2ncccn2)C1 (stereo not given),"inconclusive: 20 µM [activator, partial curve]",
NC(=O)c1c(NC(=O)CN2C(=O)CCC2=O)sc2c1CCCCC2,"inconclusive: 7.94 µM [activator, single point]",
COC(=O)[C@@]1(Cc2ccc(OC)cc2)[C@H]2c3cc(C(=O)N4CCCC4)n(Cc4ccc(O)c(OC)c4)c3C[C@H]2CN1C(=O)c1ccccc1,"inconclusive: 20 µM [activator, partial curve]",
C=CCN1CCN(C(c2ccccc2)c2nnnn2CCC(C)C)CC1 (stereo not given),"inconclusive: 15.8 µM [activator, partial curve]",
CCOC(=O)C(CC)n1cnc2sc3c(c2c1=O)CCC3 (stereo not given),"inconclusive: 39.8 µM [activator, single point]",
COc1ccc(-c2nc3cnc(Oc4cccc(Cl)c4)nc3n(CCC#N)c2=O)cc1,,inactive: 6.84%
C[C@@](N)(C(=O)O)c1cccc(CC(=O)O)c1,,inactive: 1.7%
O=C(c1ccc(C23CC4CC(CC(C4)C2)C3)o1)N1CCOCC1,,inactive: 19.3%
Cc1ccc2cc(CN(Cc3cccs3)C(=O)c3ccco3)c3nnnn3c2c1C,"inconclusive: 3.98 µM [activator, full curve, poor fit]",
COc1cc(OC)c(S(=O)(=O)N2CCCCC2)cc1S(=O)(=O)N1CCCCC1,"inconclusive: 12.6 µM [activator, partial curve]",
CC(=O)Nc1ccc(SCC(=O)c2cc(C)n(Cc3cccs3)c2C)cc1,"inconclusive: 39.8 µM [activator, single point]",
Cn1c(SCC(=O)N2CCCc3ccccc32)nnc1-c1cccs1,"inconclusive: 31.6 µM [activator, single point]",
OB(O)c1csc2ccccc12,,inconclusive: 40.7% [activator]
CCc1ccc(C(=O)COC(=O)CNC(=O)c2ccco2)cc1,,inactive: 19.1% [at 11.4 µM]
Cn1cnc2c(sc3nc(N4CCOCC4)c4c(c32)CC(C)(C)OC4)c1=O,"inconclusive: 25.1 µM [activator, single point]",
CSc1ccc(CNc2ccccn2)cc1,"inconclusive: 15.8 µM [activator, partial curve]",
O=C(COC(=O)c1cccc(NC(=O)c2ccco2)c1)c1ccc(Br)cc1,"inconclusive: 6.31 µM [activator, single point]",
C=COCCn1c(-c2nonc2N)nc2ccccc21,active: 25.1 µM,
c1ccc(-c2cnc(CSc3ncnc4sccc34)o2)cc1,active: 15.8 µM,

# — PubChem BioAssay AID938 (National Center for Advancing Translational Sciences (NCATS), 2007)
